Data as given in the supplement of paper PMC8728848.
This is one part of the list.

Tests used:
Test in all cases: glycan array binding signal (z-score within array); higher = stronger binding
Conditions in all cases: glycan notation: IUPAC condensed, linker removed
Gal6S(b1-4)Glc = target: Gal6S(b1-4)Glc
Summary of the method: (§1)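 Glycan array binding is given as a within-array Z-score, which can be read as non-binding when negative. The arrays, 3228 of them, came from the Consortium for Functional Glycomics database and were retained only where the protein sequence was available. Z-scores were averaged across arrays of the same protein sequence at different concentrations or buffers and across linkers.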

Gal6S(b1-4)Glc6S = target: Gal6S(b1-4)Glc6S
Summary of the method: as §1

Gal6S(b1-4)GlcNAc = target: Gal6S(b1-4)GlcNAc
Summary of the method: as §1

Gal6S(b1-4)GlcNAc6S = target: Gal6S(b1-4)GlcNAc6S
Summary of the method: as §1

GalNAc(a1-3)Gal = target: GalNAc(a1-3)Gal
Summary of the method: as §1

GalNAc(a1-3)GalNAc = target: GalNAc(a1-3)GalNAc
Summary of the method: as §1

[1] = target: GalNAc(a1-3)GalNAc(b1-3)Gal(a1-4)Gal(b1-4)Glc
Summary of the method: as §1

[2] = target: GalNAc(a1-3)GalNAc(b1-3)Gal(a1-4)Gal(b1-4)GlcNAc
Summary of the method: as §1

GalNAc(b1-3)Gal = target: GalNAc(b1-3)Gal
Summary of the method: as §1

[3] = target: GalNAc(b1-3)Gal(a1-4)Gal(b1-4)GlcNAc
Summary of the method: as §1

[4] = target: GalNAc(b1-3)Gal(a1-4)Gal(b1-4)GlcNAc(b1-3)Gal(b1-4)Glc
Summary of the method: as §1

[5] = target: GalNAc(b1-3)Gal(a1-6)Gal(b1-4)Glc
Summary of the method: as §1

GalNAc(b1-3)GalNAc = target: GalNAc(b1-3)GalNAc
Summary of the method: as §1

GalNAc(b1-3)GlcNAc = target: GalNAc(b1-3)GlcNAc
Summary of the method: as §1

GalNAc(b1-4)Gal(b1-4)Glc = target: GalNAc(b1-4)Gal(b1-4)Glc
Summary of the method: as §1

GalNAc(b1-4)GlcNAc = target: GalNAc(b1-4)GlcNAc
Summary of the method: as §1

[6] = target: GalNAc(b1-4)GlcNAc(b1-2)Man
Summary of the method: as §1

[7] = target: GalNAc(b1-4)GlcNAc(b1-2)Man(a1-3)[GalNAc(b1-4)GlcNAc(b1-2)Man(a1-6)]Man(b1-4)GlcNAc(b1-4)GlcNAc
Summary of the method: as §1

[8] = target: GalNAc(b1-4)GlcNAc(b1-3)GalNAc(b1-4)GlcNAc
Summary of the method: as §1

GalNAc(b1-4)GlcNAc6S = target: GalNAc(b1-4)GlcNAc6S
Summary of the method: as §1

GalNAc(b1-6)GalNAc = target: GalNAc(b1-6)GalNAc
Summary of the method: as §1

GalNAc3S(b1-4)GlcNAc = target: GalNAc3S(b1-4)GlcNAc
Summary of the method: as §1

GalNAc3S(b1-4)GlcNAc3S = target: GalNAc3S(b1-4)GlcNAc3S
Summary of the method: as §1

[9] = target: GalNAc3S(b1-4)[Fuc(a1-3)]GlcNAc
Summary of the method: as §1

GalNAc4S6S(b1-4)GlcNAc = target: GalNAc4S6S(b1-4)GlcNAc
Summary of the method: as §1

GalNAc6S(b1-4)GlcNAc = target: GalNAc6S(b1-4)GlcNAc
Summary of the method: as §1

Glc(a1-4)Glc = target: Glc(a1-4)Glc
Summary of the method: as §1

[10] = target: Glc(a1-4)Glc(a1-4)Glc(a1-4)Glc
Summary of the method: as §1

Glc(a1-6)Glc(a1-6)Glc = target: Glc(a1-6)Glc(a1-6)Glc
Summary of the method: as §1

[11] = target: Glc(a1-6)Glc(a1-6)Glc(a1-6)Glc
Summary of the method: as §1

Glc(b1-4)Glc = target: Glc(b1-4)Glc
Summary of the method: as §1

Glc(b1-6)Glc = target: Glc(b1-6)Glc
Summary of the method: as §1

GlcA(b1-3)Gal = target: GlcA(b1-3)Gal
Summary of the method: as §1

GlcA(b1-3)GlcNAc = target: GlcA(b1-3)GlcNAc
Summary of the method: as §1

GlcA(b1-6)Gal = target: GlcA(b1-6)Gal
Summary of the method: as §1

[12] = target: GlcA3S(b1-3)Gal(b1-4)GlcNAc(b1-2)Man
Summary of the method: as §1

[13] = target: GlcA3S(b1-3)Gal(b1-4)GlcNAc(b1-3)Gal(b1-4)Glc
Summary of the method: as §1

[14] = target: GlcNAc(a1-3)Gal(b1-4)GlcNAc
Summary of the method: as §1

[15] = target: GlcNAc(a1-4)Gal(b1-3)GlcNAc
Summary of the method: as §1

[16] = target: GlcNAc(a1-4)Gal(b1-4)GalNAc
Summary of the method: as §1

[17] = target: GlcNAc(a1-4)Gal(b1-4)GlcNAc
Summary of the method: as §1

[18] = target: GlcNAc(a1-4)Gal(b1-4)GlcNAc(b1-3)Gal(b1-4)Glc
Summary of the method: as §1

[19] = target: GlcNAc(a1-4)Gal(b1-4)GlcNAc(b1-3)Gal(b1-4)GlcNAc
Summary of the method: as §1

[20] = target: GlcNAc(a1-4)Gal(b1-4)GlcNAc(b1-3)Gal(b1-4)GlcNAc(b1-3)Gal(b1-4)GlcNAc
Summary of the method: as §1

[21] = target: GlcNAc(a1-4)Gal(b1-4)GlcNAc(b1-3)Gal(b1-4)[Fuc(a1-3)]GlcNAc(b1-3)Gal(b1-4)[Fuc(a1-3)]GlcNAc
Summary of the method: as §1

B1: VLRB.aGPA.23-GCN4-biotin (Petromyzon marinus) (protein)
chain: ACPSQCSCSGTEVNCAGKSLASVPAGIPTTTRVLYLNSNQITKLEPGVFDRLANLRELHLWGNQLVSLPPGVFDNLANLEKLWLNSNQLTSLPAGLFDRLVNLEHLGLCCMKLTELPSGAFDKLTRLKQLGLDQNQLKSIPDGAFARLPSLTHVWLHTNPWDCQCTDILYLSGWVAQHSSIVGEGWPWRHSPDSAKCSGTNTPVRAVTEASTSPSKCP
- glycan array binding signal (z-score) (Gal6S(b1-4)Glc): -0.078
- glycan array binding signal (z-score) (Gal6S(b1-4)Glc6S): -0.087
- glycan array binding signal (z-score) (Gal6S(b1-4)GlcNAc): -0.083
- glycan array binding signal (z-score) (Gal6S(b1-4)GlcNAc6S): -0.076
- glycan array binding signal (z-score) (GalNAc(a1-3)Gal): -0.083
- glycan array binding signal (z-score) (GalNAc(a1-3)GalNAc): -0.07
- glycan array binding signal (z-score) [1]: -0.08
- glycan array binding signal (z-score) [2]: -0.076
- glycan array binding signal (z-score) (GalNAc(b1-3)Gal): -0.076
- glycan array binding signal (z-score) [3]: -0.067
- glycan array binding signal (z-score) [4]: -0.085
- glycan array binding signal (z-score) [5]: -0.081
- glycan array binding signal (z-score) (GalNAc(b1-3)GalNAc): -0.076
- glycan array binding signal (z-score) (GalNAc(b1-3)GlcNAc): -0.084
- glycan array binding signal (z-score) (GalNAc(b1-4)Gal(b1-4)Glc): -0.07
- glycan array binding signal (z-score) (GalNAc(b1-4)GlcNAc): -0.059
- glycan array binding signal (z-score) [6]: -0.084
- glycan array binding signal (z-score) [7]: -0.068
- glycan array binding signal (z-score) [8]: -0.084
- glycan array binding signal (z-score) (GalNAc(b1-4)GlcNAc6S): -0.082
- glycan array binding signal (z-score) (GalNAc(b1-6)GalNAc): -0.073
- glycan array binding signal (z-score) (GalNAc3S(b1-4)GlcNAc): -0.071
- glycan array binding signal (z-score) (GalNAc3S(b1-4)GlcNAc3S): -0.084
- glycan array binding signal (z-score) [9]: -0.082
- glycan array binding signal (z-score) (GalNAc4S6S(b1-4)GlcNAc): -0.081
- glycan array binding signal (z-score) (GalNAc6S(b1-4)GlcNAc): -0.083
- glycan array binding signal (z-score) (Glc(a1-4)Glc): -0.077
- glycan array binding signal (z-score) [10]: -0.064
- glycan array binding signal (z-score) (Glc(a1-6)Glc(a1-6)Glc): -0.077
- glycan array binding signal (z-score) [11]: -0.076
- glycan array binding signal (z-score) (Glc(b1-4)Glc): -0.08
- glycan array binding signal (z-score) (Glc(b1-6)Glc): -0.076
- glycan array binding signal (z-score) (GlcA(b1-3)Gal): -0.078
- glycan array binding signal (z-score) (GlcA(b1-3)GlcNAc): -0.034
- glycan array binding signal (z-score) (GlcA(b1-6)Gal): -0.085
- glycan array binding signal (z-score) [12]: -0.084
- glycan array binding signal (z-score) [13]: -0.08
- glycan array binding signal (z-score) [14]: -0.077
- glycan array binding signal (z-score) [15]: -0.077
- glycan array binding signal (z-score) [16]: -0.079
- glycan array binding signal (z-score) [17]: -0.076
- glycan array binding signal (z-score) [18]: -0.071
- glycan array binding signal (z-score) [19]: -0.079
- glycan array binding signal (z-score) [20]: -0.081
- glycan array binding signal (z-score) [21]: -0.069
